Source: the CheMixHub viscosity set
± gives the uncertainty stated by the source. A number of entries come with more than one value. They are shown here; other results are not. The source may hold further records. Values that stand side by side are repeats across runs, samples, wells, individuals or studies. What stands in brackets tells the records apart. Letters count within one entry.

Which viscosity (298.15 K, 101 kPa) does the source give for `CCCC(=O)O` here?
The viscosity was 1.529 ± 0.04 mPa·s [study A] and 1.502 ± 0.04 mPa·s [study B] and 1.466 ± 0.038 mPa·s [study C] and 1.469 ± 0.014 mPa·s [study D] and 1.528 ± 0.046 mPa·s [study E] and 1.811 ± 0.014 mPa·s [study F] and 1.528 ± 0.14 mPa·s [study G].

What about the viscosity (303.15 K, 100 kPa) of the same molecule?
Its viscosity is 1.385 mPa·s [study A] and 1.386 ± 0.056 mPa·s [study B] and 1.39 ± 0.04 mPa·s [study C].

And the viscosity (308.15 K, 100 kPa)?
The viscosity was 1.242 mPa·s [study A] and 1.243 ± 0.051 mPa·s [study B] and 1.24 ± 0.04 mPa·s [study C].

And the viscosity (308.15 K, 101 kPa)?
The viscosity was 1.295 ± 0.034 mPa·s [study A] and 1.27 ± 0.034 mPa·s [study B] and 1.242 ± 0.039 mPa·s [study C] and 1.457 ± 0.011 mPa·s [study D] and 1.242 ± 0.12 mPa·s [study E].

What about the viscosity (313.15 K, 100 kPa) of the same molecule?
Its viscosity is 1.099 mPa·s [study A] and 1.099 ± 0.045 mPa·s [study B] and 1.1 ± 0.03 mPa·s [study C].

And the viscosity (318.15 K, 100 kPa)?
The viscosity was 0.9562 mPa·s [study A] and 0.956 ± 0.039 mPa·s [study B] and 0.96 ± 0.03 mPa·s [study C].

And the viscosity (318.15 K, 101 kPa)?
The viscosity was 1.078 ± 0.029 mPa·s [study A] and 0.9562 ± 0.033 mPa·s [study B] and 1.103 ± 0.0087 mPa·s [study C] and 0.9562 ± 0.095 mPa·s [study D].

Which viscosity (298.15 K, 101 kPa) does the source give for `COCCO` here?
Its viscosity is 1.722 ± 0.14 mPa·s [study A] and 1.562 ± 0.012 mPa·s [study B] and 1.547 ± 0.037 mPa·s [study C] and 1.551 ± 0.033 mPa·s [study D].

And the viscosity (303.15 K, 101 kPa)?
Its viscosity is 1.573 ± 0.064 mPa·s [study A] and 1.43 ± 0.02 mPa·s [study B] and 1.968 ± 0.036 mPa·s [study C] and 1.968 ± 0.5 mPa·s [study D].

What about the viscosity (308.15 K, 101 kPa) of the same molecule?
The viscosity was 1.492 ± 0.035 mPa·s [study A] and 1.39 ± 0.12 mPa·s [study B] and 1.229 ± 0.016 mPa·s [study C] and 1.392 ± 0.057 mPa·s [study D] and 1.275 ± 0.009 mPa·s [study E] and 1.49 ± 0.15 mPa·s [study F].

What about the viscosity (308.15 K, 101.33 kPa) of the same molecule?
Its viscosity is 1.189 ± 0.058 mPa·s [study A] and 1.189 ± 0.01 mPa·s [study B] and 1.326 ± 0.01 mPa·s [study C] and 1.315 ± 0.01 mPa·s [study D].

And the viscosity (313.15 K, 101 kPa)?
The viscosity was 1.219 ± 0.029 mPa·s [study A] and 1.226 ± 0.05 mPa·s [study B] and 1.148 ± 0.069 mPa·s [study C] and 1.25 ± 0.03 mPa·s [study D] and 1.098 ± 0.011 mPa·s [study E] and 1.18 ± 0.02 mPa·s [study F] and 1.218 ± 0.12 mPa·s [study G].

And the viscosity (318.15 K, 101 kPa)?
The viscosity was 1.031 ± 0.017 mPa·s [study A] and 1.129 ± 0.027 mPa·s [study B] and 1.095 ± 0.045 mPa·s [study C] and 1.04 ± 0.063 mPa·s [study D] and 1.071 ± 0.008 mPa·s [study E] and 1.027 ± 0.1 mPa·s [study F] and 1.128 ± 0.11 mPa·s [study G].
